# In the supplement of paper PMC11417369:
# ± gives the standard deviation of the averaged measurements. Some of the results follow.
# System: PfAP2-EXP AP2 domain (GST-tagged)
# Test: gcPBM binding intensity (ln(normalized median fluorescence intensity)); higher = stronger DNA binding
# Procedure, shortened: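 Using an Agilent 4 × 180k array, primer-extended double-stranded 36-bp intergenic genomic probes and negative controls were exposed for 1 h to GST-fused P. falciparum DNA-binding domains expressed in E. coli. Binding was carried out in 1× PBS with 1% milk, 0.2 mg/ml BSA, 0.5% salmon testes DNA and 0.03% Triton X-100, and protein was detected with Alexa488 anti-GST antibody and a 488 nm scan. Binding intensity is the highest Masliner-normalised natural-log median intensity across replicate spots of either probe orientation.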
row,Sequence,gcPBM binding intensity (ln)
1,AACACCAAACTAAATGTACACACATACATAAATATA [CACACA_site8298],8.58 ± 0.38
2,AATATAAACACAAACACACACATATATATATATATA [CACACA_site4307],10.1 ± 0.29
3,TTATTTAAACAAATCACACACAAATATAAATACATA [CACACA_site5158],8.61 ± 0.52
4,CATCCAAAAATATTATGTACTAAATTTGGATGTATT [XGTACX_site3954],8.48 ± 0.47
5,TATAAAATTATGTGTACACAAATATAACTTTTCTTT [CACACA_site5554],8.48 ± 0.23
6,TATTCATATTCCAAGTGTACACATAAATCCCTAATA [XGTACX_site4131],8.88 ± 0.43
7,AAAATATTTCTTCTTTGTACTTATATATATTTAATT [XGTACX_site5446],8.81 ± 0.48
8,TACTTACCTATAATAACACACAAGAAAAAAATAAAA [CACACA_site6616],8.58 ± 0.47
9,AAATAATATCATAAATGTACATATATCATATTATTA [XGTACX_site5372],8.29 ± 0.36
10,AAATTATAGAATCATTGTACTTTTTTTTTTTTTTTT [XGTACX_site1280],8.62 ± 0.16
11,CTCATCCTTACATACACACACATATATTTATTTATA [CACACA_site6202],8.99 ± 0.39
12,ATAATAACTTGTAAGGTGCATTTTATGTTTTCTTAA,8.63 ± 0.085
13,AGAAATAATATTATTCAAGTATTTATTTAATTTTCA [GTGCAC_negctrl_site475],8.01 ± 0.35
14,TATGCTTCAAAATTGTGTACATATATAATATATTAT [XGTACX_site6760],8.79 ± 0.34
15,TTAATAATTATAACATGTACATACACTAAATTTTTT [XGTACX_site8953],8.7 ± 0.35
16,CAAATATATATTTATTGTACATATTGTTTATATGGT [XGTACX_site5246],8.77 ± 0.49
17,AAATATTTATATGTTACACACTGTTTATAATTTTCT [CACACA_site4868],8.51 ± 0.36
18,CAATGTATTTAGAATACATGCATATTTTCATAATGT [TGCATGCA_site221],8.6 ± 0.028
19,AATTATGCACAAATCACACATATAAAATAAAAAGTG [CACACA_site4474],8.87 ± 0.26
20,GTGGTATAAATTTTATGTACTTAATAACTCATTAAT [XGTACX_site5555],8.54 ± 0.33
21,AAAAATATTTAAAATACACACATATCTATAATATAT [CACACA_site7032],8.4 ± 0.24
22,ACATATATATTTATATGTACATATATTTATATATAT [XGTACX_site7469],8.41 ± 0.23
23,AATTCTTTACTATTCACACATATAAATATTCACTTT [CACACA_site4886],8.72 ± 0.4

row,Sequence,gcPBM binding intensity (ln)
1,CAAAATGTTAAAGATACACACCTAACAAACACAAAA [CACACA_site4685],8.74 ± 0.51
2,AAATCCATATAGGATTGTACATATATTATATATATA [XGTACX_site8818],8.84 ± 0.11
3,AAAAAAAAAAAACACACACACACAAATACATACACA [CACACA_site706],8.6 ± 0.6
4,TTTAATTTATATAATGATATTAAGTTGGTTATTAGG [CACACA_negctrl_site329],8.16 ± 0.37
5,ACAAAAATGAGATGGTGTACGCACAAATAAATAATA [XGTACX_site5221],9.07 ± 0.35
6,ATATAGTTTCACATGTGTACATAAAAATACACTTGT [XGTACX_site3339],8.35 ± 0.2
7,TTACGATTAAATATAACACACAACATATTTTTAATA [CACACA_site2967],8.24 ± 0.37
8,ATTATATTCTCCTTCACACACAAAAATATTTCATCA [CACACA_site5326],8.73 ± 0.45
9,AAGGATATGAAAAGTAGTACAAAATTTAGAACACCC [XGTACX_site4758],9.17 ± 0.37
10,CACAAAAATTTATACACACACATATATAATATATAT [CACACA_site152],8.59 ± 0.21
11,AAGTATTACAACCACACACACACCTATATATCATAG [CACACA_site7878],8.66 ± 0.47
12,ATCTTTTACGAATACACACACATAAAGAAAAAAAAA [CACACA_site1331],8.56 ± 0.42
13,ATTTCAAATTAATTTACACACTTCATACTAAAAGAC [CACACA_site3176],8.7 ± 0.35
14,TTGATATATAATAATACACACTTACATAATTAATTA [CACACA_site4320],8.38 ± 0.35
15,TATATATATATATATACACACATATACATATTGTTT [CACACA_site3499],10.2 ± 0.32
16,TCCTACATATAAAAATGTACCCATTGTTTTTTTTTT [XGTACX_site7205],8.46 ± 0.44
17,AATGTATATAGAAACATGCACACGTGGTTGTATATA [CACACA_site3278],8.89 ± 0.49
18,TTGTGTTAACTACCATGTACTTATACATCATAGGAA [XGTACX_site6627],8.43 ± 0.36
19,ATTTATGTTATATATACACACACAAAAGAAAAAAAA [CACACA_site8977],8.53 ± 0.47
20,TTTTTGTATGCTTCCCGATTACATTATGTTGTAAAT [CACACA_negctrl_site227],9.01 ± 0.41
21,TTTTTTATAAATCAAATGAAAAATAAACTATTCAGA [CACACA_negctrl_site1568],8.05 ± 0.46
22,ATACATATAAAAAAGTGTACATATTAAAATAAGTAT [XGTACX_site1310],8.54 ± 0.3
23,TCATACAAACCTATTTGTACATAAGTATAATATATA [XGTACX_site4284],8.23 ± 0.43

row,Sequence,gcPBM binding intensity (ln)
1,AATGCAAATAATAAAACACACAAAAAAAAGAAAAAA [CACACA_site1184],8.33 ± 0.41
2,ATATCCGTTCAAAGATGTACATATATATTCTATAGA [XGTACX_site5354],8.73 ± 0.46
3,TATTGCCCTGGACACACACACATATATATATATATA [CACACA_site5389],10.2 ± 0.51
4,ATTATTATTATATATGCATGTAAAATATTAAAGTAC [TGCATGCA_site914],9.005 ± 0.078
5,TTATGTTATATAAAAAGTACAAATTTTTTTTAATTA [XGTACX_site3435],8.21 ± 0.64
6,ATAATATAAACATACACACACACATCTATATTTATA [CACACA_site7381],8.52 ± 0.45
7,TATAAATAGATATATACACACATTTTTAATGATAAA [CACACA_site7299],8.21 ± 0.4
8,AAAAAAAAAAGACACACACACAATAGTATATAAATC [CACACA_site6579],8.72 ± 0.48
9,TATATATATATATTACGTTTTAAATATACTAATCTT [CACACA_negctrl_site32],10 ± 0.42
10,TTTTTATTTTTTCAAGTGCATATTTTTGGCTTCTTA,8.59 ± 0.24
11,TAAATTTATATATAGGTGCGCAATTTGATAATAGTT [GTGCAC_site9783],8.99 ± 0.35
12,CTTTTTCCTTTATATTGTACATAATTAAAGATAATA [XGTACX_site7014],8.64 ± 0.52
13,AAAAAAAAAAAAAATACACACATATATATATATATA [CACACA_site85],10.1 ± 0.34
14,TAAATACAGACATATACACACATATATATATATATA [CACACA_site4382],10.1 ± 0.52
15,ATGTATATGTTTTGTTGTACAAGTATTTTATATCTT [XGTACX_site3588],8.91 ± 0.34
16,TTTCAATTTATCAGTGTGCACAAAAATAAAATAAAA,8.965 ± 0.049
17,AATAAAAATATAGGCACACATATTAAAATGAACTTA [CACACA_site830],8.53 ± 0.42
18,TAAAGATGTATTTATTCACACATCTCATATAATGAA [CACACA_site5229],8.11 ± 0.31
19,TTATGTATCCTTATAAGAAAAAAAAAAAAATTCTCT [CACACA_negctrl_site1183],8.19 ± 0.55
20,TGAATTTAGATATATACACACAAAAGTAAATACAAT [CACACA_site5548],8.56 ± 0.63
21,AGTAGTCTGGAGAAAAGTACACAGTATCTGGTAACC [XGTACX_site2035],8.54 ± 0.4
22,GAATATTAAACAAACACACACACATATATATATATA [CACACA_site3382],10.1 ± 0.32
23,TTTAAATATATTCAATCACACACATTCGTTTTTTTT [CACACA_site7962],8.59 ± 0.46

row,Sequence,gcPBM binding intensity (ln)
1,AATATATACATACATACATGCATACATATATATAAC [TGCATGCA_site371],8.73 ± 0.23
2,GTTTATTGATTTATTTGTACTTATATATATATTTCA [XGTACX_site5098],8.99 ± 0.44
3,GTATAAAAATTATATACACACAACAGAATTACATAT [CACACA_site133],8.69 ± 0.44
4,TACCTATATACATACACACACATATAACCAATGTAG [CACACA_site7096],8.71 ± 0.53
5,AGAAGATTAAAAATTGCACACAAAAATATATTTTCT [CACACA_site8359],8.36 ± 0.35
6,TAATAAATAAAAACATGTACATATATACATATATGT [XGTACX_site485],8.6 ± 0.2
7,AAAGACTTTTTATGAGCACACACATATATTATGGAG [CACACA_site8254],8.55 ± 0.3
8,GATATATAGGTATTTACACACAATGTGAGATCTATA [CACACA_site7575],8.5 ± 0.41
9,ATGATTATACAAAATATACACACGTGGACACAAATA [CACACA_site8304],9.1 ± 0.33
10,TGATAATAAGCATACACACACACACTAAAAAAAAAA [CACACA_site6478],8.65 ± 0.56
11,TTTCTATAATATATATGTACATATATAATATGTCGT [XGTACX_site3676],8.55 ± 0.42
12,AGATAAAATAAATACACACACATAAATACGTACAAA [CACACA_site4739],9.04 ± 0.33
13,TATGGGGAACTATAATGTACGTATTCCTCATATATA [XGTACX_site338],8.69 ± 0.33
14,ATTAAAATAGAAAAAAAAAAAAAAAAAAAAAAAAAA [CACACA_negctrl_site1117],8.05 ± 0.45
15,GATGATACACAGGTGTTGCACTTAAATGCAGTTCTT [GTGCAC_site9627],8.69 ± 0.29
16,TTTTCAAAATGTTGTACACACAAAAAAAAAAAAAAA [CACACA_site1550],8.45 ± 0.63
17,TAAATTTTGTTTAGCACACACACATACATACATACA [CACACA_site3155],9.15 ± 0.18
18,TTGTATTGTATATGCACACATAGAACACTTTTTTTT [CACACA_site4133],8.62 ± 0.13
19,TAATCATTTTTAAATTGTACAATTTATATAATAAGT [XGTACX_site6081],8.5 ± 0.26
20,TTGATATACTATGACACATGCAAATAAAACATTATA [TGCATGCA_site535],8.64 ± 0.44
